Measurements published in PMC5938239.
Like-named read-outs stand apart in the source and are kept apart here. No constants are given. Whether binding was seen depends on the method and setting. In cells and extracts the contact can be indirect. Some entries that bind do so weakly or less than the wild type. For some of these results: Sequences can lack the tags named with a protein.

Protein sequences, listed by entry. Tags and fused reporters are not part of them.
UniProt Q9R016: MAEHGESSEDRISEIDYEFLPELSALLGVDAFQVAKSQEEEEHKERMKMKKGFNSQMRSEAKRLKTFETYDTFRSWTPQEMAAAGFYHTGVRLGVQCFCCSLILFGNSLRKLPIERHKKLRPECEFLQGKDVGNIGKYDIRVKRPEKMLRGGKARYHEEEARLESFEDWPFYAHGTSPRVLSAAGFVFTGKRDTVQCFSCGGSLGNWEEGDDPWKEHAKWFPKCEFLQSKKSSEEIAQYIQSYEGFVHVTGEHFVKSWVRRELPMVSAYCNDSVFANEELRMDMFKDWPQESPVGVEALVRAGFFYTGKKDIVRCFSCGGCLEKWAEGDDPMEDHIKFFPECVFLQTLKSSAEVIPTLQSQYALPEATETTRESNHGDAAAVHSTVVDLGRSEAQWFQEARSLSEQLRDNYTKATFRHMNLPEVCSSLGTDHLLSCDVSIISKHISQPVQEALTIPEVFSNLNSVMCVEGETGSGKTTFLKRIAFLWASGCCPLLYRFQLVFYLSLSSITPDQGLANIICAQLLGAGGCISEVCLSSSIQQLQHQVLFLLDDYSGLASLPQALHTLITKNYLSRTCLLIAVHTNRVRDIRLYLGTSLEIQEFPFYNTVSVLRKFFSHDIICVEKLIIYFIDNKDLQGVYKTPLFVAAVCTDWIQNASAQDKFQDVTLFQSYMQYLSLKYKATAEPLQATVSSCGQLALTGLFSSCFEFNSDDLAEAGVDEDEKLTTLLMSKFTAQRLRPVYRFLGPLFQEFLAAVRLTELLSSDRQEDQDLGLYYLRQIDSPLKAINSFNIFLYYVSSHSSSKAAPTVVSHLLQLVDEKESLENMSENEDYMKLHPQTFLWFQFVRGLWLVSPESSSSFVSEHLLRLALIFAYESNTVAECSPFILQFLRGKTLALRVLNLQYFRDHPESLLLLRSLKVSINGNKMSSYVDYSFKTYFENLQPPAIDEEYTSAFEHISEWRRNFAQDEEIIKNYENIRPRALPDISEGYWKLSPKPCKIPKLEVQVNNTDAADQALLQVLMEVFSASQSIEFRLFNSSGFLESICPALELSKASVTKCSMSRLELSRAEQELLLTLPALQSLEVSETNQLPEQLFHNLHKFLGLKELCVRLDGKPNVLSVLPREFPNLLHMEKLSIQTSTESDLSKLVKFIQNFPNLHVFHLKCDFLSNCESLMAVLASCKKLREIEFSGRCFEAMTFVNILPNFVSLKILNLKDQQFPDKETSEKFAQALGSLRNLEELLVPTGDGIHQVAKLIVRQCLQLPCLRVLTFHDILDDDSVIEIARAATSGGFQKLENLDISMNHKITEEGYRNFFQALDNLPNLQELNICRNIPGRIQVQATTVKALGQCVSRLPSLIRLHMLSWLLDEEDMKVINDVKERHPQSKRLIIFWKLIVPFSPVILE

Columns and labels:
Flag-NAIP5 (mouse) [1] = target: Flag-NAIP5 (mouse) (UniProt Q9R016); assay: co-IP
Flag-NAIP5 (mouse) [2] = target: Flag-NAIP5 (mouse) (UniProt Q9R016); assay: co-IP; remark: listed apart in the source

SF R506Q (from UniProt Q56086 1-506) (ligand)
binding (Flag-NAIP5 (mouse) [1]): no binding

SF Q493K (from UniProt Q56086 1-506) (ligand)
binding (Flag-NAIP5 (mouse) [1]): binds

SF N500Q (from UniProt Q56086 1-506) (ligand)
binding (Flag-NAIP5 (mouse) [1]): binds

FliC2 flagellin from Yersinia enterocolitica (from UniProt A0ACH1C5V0 1-381) (ligand)
binding (Flag-NAIP5 (mouse) [1]): binds

flagellin of Salmonella typhi (SF) (from UniProt Q56086 1-506) (ligand)
binding (Flag-NAIP5 (mouse) [1]): binds

SF R479K (from UniProt Q56086 1-506) (ligand)
binding (Flag-NAIP5 (mouse) [1]): binds

B1: FliC (type b) flagellin from Pseudomonas aeruginosa (ligand, UniProt P72151 1-488)
chain: MALTVNTNIASLNTQRNLNASSNDLNTSLQRLTTGYRINSAKDDAAGLQISNRLSNQISGLNVATRNANDGISLAQTAEGALQQSTNILQRIRDLALQSANGSNSDADRAALQKEVAAQQAELTRISDTTTFGGRKLLDGSFGTTSFQVGSNAYETIDISLQNASASAIGSYQVGSNGAGTVASVAGTATASGIASGTVNLVGGGQVKNIAIAAGDSAKAIAEKMDGAIPNLSARARTVFTADVSGVTGGSLNFDVTVGSNTVSLAGVTSTQDLADQLNSNSSKLGITASINDKGVLTITSATGENVKFGAQTGTATAGQVAVKVQGSDGKFEAAAKNVVAAGTAATTTIVTGYVQLNSPTAYSVSGTGTQASQVFGNASAAQKSSVASVDISTADGAQNAIAVVDNALAAIDAQRADLGAVQNRFKNTIDNLTNISENATNARSRIKDTDFAAETAALSKNQVLQQAGTAILAQANQLPQAVLSLLR
binding (Flag-NAIP5 (mouse) [2]): binds
